The values below come from the BET-seq Pho4 binding data (Le et al. 2018).

The list shows a part of the results. These are noisy estimates, calculated here from bound and input reads.

The target in the assay is T1, Pho4 (S. cerevisiae) (UniProt P07270).
T1 sequence: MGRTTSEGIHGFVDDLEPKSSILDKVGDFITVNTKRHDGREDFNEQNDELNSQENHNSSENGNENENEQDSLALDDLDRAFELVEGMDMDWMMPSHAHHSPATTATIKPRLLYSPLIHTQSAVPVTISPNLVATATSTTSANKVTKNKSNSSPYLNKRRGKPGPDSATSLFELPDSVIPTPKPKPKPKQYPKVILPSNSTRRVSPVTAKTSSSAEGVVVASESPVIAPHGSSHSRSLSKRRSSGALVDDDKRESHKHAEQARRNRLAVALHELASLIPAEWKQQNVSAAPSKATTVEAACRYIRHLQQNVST
In words: relative binding free energy (BET-seq); higher = weaker binding. The conditions noted are these: reference: library average.
In the case of TTGGTCACGTGGTTAA, the “relative binding free energy” value stood at 0.07 kcal/mol.

Take GGTGGCACGTGCGTGA: the “relative binding free energy” value was -0.13 kcal/mol.

Take GGTGGCACGTGGGGCA: the “relative binding free energy” value is -0.11 kcal/mol.

With TGTGTCACGTGGACAA, the “relative binding free energy” value was 0.14 kcal/mol.

Consider TGTCTCACGTGGTAGG, for which the “relative binding free energy” value is 0.12 kcal/mol.

Regarding ATCGACACGTGGGGAG, the “relative binding free energy” value was -0.08 kcal/mol.

As for TTCGACACGTGGTGGT, the “relative binding free energy” value was -0.05 kcal/mol.

Regarding GTTGTCACGTGCTGAG, the “relative binding free energy” value is 0.26 kcal/mol.

With ATTGGCACGTGATGAG, the “relative binding free energy” value is -0.04 kcal/mol.

As to ATGAGCACGTGCGGGT, the “relative binding free energy” value was -0.23 kcal/mol.

GTCGTCACGTGGGTGT: the “relative binding free energy” value worked out at 0.02 kcal/mol.

For the sequence CAGAACACGTGTGGTG, the “relative binding free energy” value worked out at 0.1 kcal/mol.

Consider GTAGACACGTGTGGAG, for which the “relative binding free energy” value came to 0.03 kcal/mol.

Turning to GAATACACGTGGGGTC, the “relative binding free energy” value came out at 0.04 kcal/mol.

With TTAGGCACGTGTGTTG, the “relative binding free energy” value is -0.03 kcal/mol.

As to GGGGTCACGTGTGCCG, the “relative binding free energy” value was determined as 0.21 kcal/mol.

As for AAATGCACGTGTGTGC, the “relative binding free energy” value was -0.02 kcal/mol.

Consider GGGAACACGTGATTGA, for which the “relative binding free energy” value turned out to be 0.15 kcal/mol.

In the case of TTTAACACGTGGTATA, the “relative binding free energy” value is -0.09 kcal/mol.

As for TGAGACACGTGTTTTT, the “relative binding free energy” value was -0.05 kcal/mol.

For the sequence TGTGTCACGTGAATGA, the “relative binding free energy” value was found to be 0.24 kcal/mol.

For TTACTCACGTGGGTGC, the “relative binding free energy” value was -0.01 kcal/mol.

On to TGTTCCACGTGTGTAA, for which the “relative binding free energy” value amounted to 0.07 kcal/mol.

Turning to GCGTGCACGTGTTTGG, the “relative binding free energy” value was -0.06 kcal/mol.

For GCGGGCACGTGGGTTG, the “relative binding free energy” value is -0.2 kcal/mol.

As to GTAGTCACGTGTTGGA, the “relative binding free energy” value worked out at 0.09 kcal/mol.

Regarding TGTTGCACGTGCTCTT, the “relative binding free energy” value was -0.01 kcal/mol.

Consider GTTGTCACGTGTTTGT, for which the “relative binding free energy” value was 0.18 kcal/mol.

Turning to GTGTCCACGTGGGTAG, the “relative binding free energy” value is -0.07 kcal/mol.

In the case of CGTCGCACGTGATGTT, the “relative binding free energy” value stood at 0.17 kcal/mol.

Regarding TGGATCACGTGGTAAC, the “relative binding free energy” value came out at 0.23 kcal/mol.

For the sequence ATGATCACGTGTTTGT, the “relative binding free energy” value stood at 0.12 kcal/mol.

As to GTGCGCACGTGTTGTT, the “relative binding free energy” value is -0.06 kcal/mol.

Take GTTTGCACGTGGAGTA: the “relative binding free energy” value turned out to be 0.12 kcal/mol.

On to GCTGGCACGTGTGGTC, for which the “relative binding free energy” value turned out to be 0 kcal/mol.

For CAGGGCACGTGTGTTA, the “relative binding free energy” value is 0.08 kcal/mol.

TGGAGCACGTGGGAAT: the “relative binding free energy” value is -0.1 kcal/mol.

Turning to ATTCTCACGTGGGATG, the “relative binding free energy” value is 0.08 kcal/mol.

For the sequence TGTTCCACGTGAAGGT, the “relative binding free energy” value is 0.19 kcal/mol.

Consider GGAGTCACGTGCTTGA, for which the “relative binding free energy” value is 0.16 kcal/mol.

On to AGCTACACGTGGTTGT, for which the “relative binding free energy” value amounted to 0.06 kcal/mol.

In the case of AGGGGCACGTGGAGCA, the “relative binding free energy” value is -0.09 kcal/mol.

Turning to TAAGTCACGTGATGGT, the “relative binding free energy” value stood at 0.17 kcal/mol.

For the sequence ACGGTCACGTGTTGTT, the “relative binding free energy” value came out at 0.03 kcal/mol.

Take TTGATCACGTGTAGGT: the “relative binding free energy” value was 0.19 kcal/mol.

On to TAGGTCACGTGGGGGA, for which the “relative binding free energy” value was -0.03 kcal/mol.

Take GGTGACACGTGGGAAG: the “relative binding free energy” value was determined as 0.04 kcal/mol.

TGAGTCACGTGATAGG: the “relative binding free energy” value was found to be 0.23 kcal/mol.

ATGTACACGTGTTATT: the “relative binding free energy” value was -0.05 kcal/mol.

On to CGTGTCACGTGGGCCG, for which the “relative binding free energy” value was -0.08 kcal/mol.

For AGCTTCACGTGGTGGA, the “relative binding free energy” value was determined as 0.29 kcal/mol.

Regarding TGCTCCACGTGTATGG, the “relative binding free energy” value worked out at 0.12 kcal/mol.

Consider TTAGTCACGTGTGATA, for which the “relative binding free energy” value came out at 0.19 kcal/mol.

Consider TGGGCCACGTGAGTTC, for which the “relative binding free energy” value worked out at 0.25 kcal/mol.

For TAGGACACGTGCGGCG, the “relative binding free energy” value stood at 0.12 kcal/mol.

As for GGCAGCACGTGGAGGC, the “relative binding free energy” value was -0.1 kcal/mol.

Regarding GGGTGCACGTGAGAGT, the “relative binding free energy” value amounted to 0.27 kcal/mol.

On to GAAATCACGTGGAGGT, for which the “relative binding free energy” value is 0.26 kcal/mol.

Regarding CTGGCCACGTGTTTGT, the “relative binding free energy” value was -0.03 kcal/mol.

With TTTTGCACGTGGACTA, the “relative binding free energy” value is -0.07 kcal/mol.

Consider AATGGCACGTGTTAGA, for which the “relative binding free energy” value is -0.06 kcal/mol.

On to GGTTTCACGTGTTATT, for which the “relative binding free energy” value came to 0.38 kcal/mol.

Consider CATGGCACGTGTAGTA, for which the “relative binding free energy” value was -0.08 kcal/mol.

Regarding TGTCGCACGTGCGCGT, the “relative binding free energy” value was -0.15 kcal/mol.

Regarding AGAGGCACGTGGTTTG, the “relative binding free energy” value was -0.13 kcal/mol.

On to AGTGGCACGTGTGTCA, for which the “relative binding free energy” value was -0.02 kcal/mol.

Regarding GCTATCACGTGGAGGT, the “relative binding free energy” value came out at 0.26 kcal/mol.

Turning to GGGTACACGTGTGTCG, the “relative binding free energy” value was found to be 0.15 kcal/mol.

On to AGTATCACGTGGTAAT, for which the “relative binding free energy” value came out at 0.12 kcal/mol.

Consider TATTTCACGTGTGCGA, for which the “relative binding free energy” value was 0.42 kcal/mol.

With GGTTGCACGTGTTTCT, the “relative binding free energy” value was 0.11 kcal/mol.

In the case of TGGTACACGTGTACGT, the “relative binding free energy” value was 0.07 kcal/mol.

Turning to AGGTTCACGTGTTAGG, the “relative binding free energy” value was 0.26 kcal/mol.

With GATAGCACGTGGGCGG, the “relative binding free energy” value was -0.12 kcal/mol.

Turning to CCTTGCACGTGAGTTG, the “relative binding free energy” value is 0.23 kcal/mol.

Turning to TCAGTCACGTGTAGGA, the “relative binding free energy” value is 0.12 kcal/mol.

In the case of TATGTCACGTGAGTGT, the “relative binding free energy” value is 0.18 kcal/mol.

As to AGTATCACGTGGGGTC, the “relative binding free energy” value stood at 0.03 kcal/mol.

For GGTGTCACGTGGAGGC, the “relative binding free energy” value amounted to 0.11 kcal/mol.

As to TTGTCCACGTGGAGGG, the “relative binding free energy” value was -0.04 kcal/mol.

ACGGGCACGTGCGGTG: the “relative binding free energy” value is -0.27 kcal/mol.

Take ATATGCACGTGTTAGT: the “relative binding free energy” value is -0.07 kcal/mol.

On to AAAGACACGTGGTAGT, for which the “relative binding free energy” value was -0.06 kcal/mol.

In the case of TGGGACACGTGCGGAG, the “relative binding free energy” value worked out at 0.07 kcal/mol.

Regarding AGTTTCACGTGATATA, the “relative binding free energy” value worked out at 0.28 kcal/mol.

On to GTATACACGTGATGTG, for which the “relative binding free energy” value amounted to 0.23 kcal/mol.

In the case of TTTTCCACGTGCGGGT, the “relative binding free energy” value came to 0.16 kcal/mol.

On to GTGTACACGTGGGGTG, for which the “relative binding free energy” value was -0.04 kcal/mol.

In the case of GGTTTCACGTGATGTA, the “relative binding free energy” value was found to be 0.43 kcal/mol.

For GATGTCACGTGGATTA, the “relative binding free energy” value is 0.15 kcal/mol.

In the case of AAGGACACGTGTGATT, the “relative binding free energy” value was found to be 0.15 kcal/mol.

For the sequence GCTTTCACGTGATCGT, the “relative binding free energy” value stood at 0.4 kcal/mol.

As for GTTTACACGTGAGTAA, the “relative binding free energy” value worked out at 0.35 kcal/mol.

In the case of GGGCACACGTGGTAGG, the “relative binding free energy” value turned out to be 0.06 kcal/mol.

Consider TAAGTCACGTGACTTT, for which the “relative binding free energy” value was 0.2 kcal/mol.

With AGGGCCACGTGCGTGA, the “relative binding free energy” value was -0.17 kcal/mol.

As for TAGGCCACGTGAAGTT, the “relative binding free energy” value was found to be 0.14 kcal/mol.

Consider GTGGGCACGTGAGTGG, for which the “relative binding free energy” value was determined as 0.23 kcal/mol.

Turning to GAGTTCACGTGAAGAT, the “relative binding free energy” value came to 0.54 kcal/mol.

Turning to CGTGGCACGTGTTACT, the “relative binding free energy” value is -0.08 kcal/mol.

As for GCGTTCACGTGTGGTA, the “relative binding free energy” value is 0.28 kcal/mol.

Regarding GGGATCACGTGGGGTA, the “relative binding free energy” value was found to be 0.06 kcal/mol.

Regarding AGTGACACGTGGAGTA, the “relative binding free energy” value was -0.1 kcal/mol.

In the case of TAGGTCACGTGAAGGC, the “relative binding free energy” value came to 0.37 kcal/mol.

As to TGAAGCACGTGATATT, the “relative binding free energy” value came out at 0.12 kcal/mol.

GTTAGCACGTGTAAAG: the “relative binding free energy” value is 0.02 kcal/mol.

Turning to TTTTGCACGTGTCAGG, the “relative binding free energy” value amounted to 0.06 kcal/mol.

For ATGTTCACGTGGGTCC, the “relative binding free energy” value worked out at 0.27 kcal/mol.

With CTGTGCACGTGGTAAT, the “relative binding free energy” value was -0.12 kcal/mol.

For the sequence TACGTCACGTGGATGG, the “relative binding free energy” value was 0.25 kcal/mol.

For the sequence CTTTGCACGTGGTTAA, the “relative binding free energy” value was -0.16 kcal/mol.

Turning to TGGTTCACGTGATATA, the “relative binding free energy” value came out at 0.36 kcal/mol.

Consider TGGGGCACGTGCCTGT, for which the “relative binding free energy” value is -0.2 kcal/mol.

With TGTATCACGTGACGTA, the “relative binding free energy” value is 0.14 kcal/mol.

CTTTACACGTGTGAAT: the “relative binding free energy” value came to 0.33 kcal/mol.
